{"source": "paper PMC6919601", "about": "“Identification of Plasmodium dipeptidyl aminopeptidase allosteric inhibitors by high throughput screening” (PLoS ONE, 2019)", "note": "The whole screen tested about 110,000 compounds, of which about 230 (0.21%) showed an effect of 50% or more. This is one part of the list.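 Further: 30 min substrate incubation versus DMSO and 10 µM JCP410 controls.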", "data": [{"molecular_target": "DPAP1 (Plasmodium falciparum, UniProt Q8IIJ9)", "sequence (Q8IIJ9 whole entry, looked up)": "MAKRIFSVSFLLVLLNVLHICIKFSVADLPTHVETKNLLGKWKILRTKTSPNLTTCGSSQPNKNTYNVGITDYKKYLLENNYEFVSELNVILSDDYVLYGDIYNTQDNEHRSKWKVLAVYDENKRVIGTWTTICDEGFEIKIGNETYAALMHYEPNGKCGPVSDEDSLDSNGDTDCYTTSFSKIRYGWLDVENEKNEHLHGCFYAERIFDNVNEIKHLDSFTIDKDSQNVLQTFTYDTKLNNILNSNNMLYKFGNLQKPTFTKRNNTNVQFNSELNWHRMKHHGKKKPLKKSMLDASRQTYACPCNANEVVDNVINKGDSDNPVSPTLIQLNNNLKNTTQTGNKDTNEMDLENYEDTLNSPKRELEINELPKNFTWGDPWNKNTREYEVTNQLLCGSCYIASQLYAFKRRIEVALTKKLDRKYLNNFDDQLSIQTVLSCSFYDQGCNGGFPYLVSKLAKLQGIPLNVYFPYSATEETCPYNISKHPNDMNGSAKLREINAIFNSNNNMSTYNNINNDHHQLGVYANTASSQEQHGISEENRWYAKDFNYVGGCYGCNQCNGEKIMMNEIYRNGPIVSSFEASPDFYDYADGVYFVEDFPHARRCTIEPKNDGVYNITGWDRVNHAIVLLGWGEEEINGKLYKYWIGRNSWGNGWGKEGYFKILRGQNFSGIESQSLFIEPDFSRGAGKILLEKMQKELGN", "experiment": "primary screen, percent inhibition; read by cleavage of a fluorogenic dipeptide substrate; higher = more effect of the substance", "design": "species or system P. falciparum D10 trophozoite lysates; single well", "units": {"% Inhibition @ 10 uM": "%"}, "values": [{"smiles": "CC(=O)OC(C#CCN1CCCC1)c1ccccc1", "note": "(stereo not drawn)", "% Inhibition @ 10 uM": 0.177}, {"smiles": "COc1ccc(CN2CCN(Cc3c[nH]c4ccccc34)CC2)cc1OC", "% Inhibition @ 10 uM": -5.29}, {"smiles": "CC[C@@H](C)[C@H](NC(=O)c1cccc(N)c1)C(=O)N[C@@H](CCc1ccccc1)C(=O)COCc1ccccc1", "% Inhibition @ 10 uM": -7.36}, {"smiles": "Cc1ccc(-n2nc3c(N4CCC(C(=O)NCC5CCCO5)CC4)nnc(C)c3c2C)cc1", "note": "(stereo not drawn)", "% Inhibition @ 10 uM": 3.74}, {"smiles": "C=CCSc1nc(=O)c(CC)c(O)n1CC=C", "% Inhibition @ 10 uM": -2.6}, {"smiles": "COc1cc(C(=S)N2CCOCC2)ccc1O", "% Inhibition @ 10 uM": -2.18}, {"smiles": "Cc1ccc(S(=O)(=O)Nc2ccc3[nH]c(-c4cccn4C)nc3c2)cc1", "% Inhibition @ 10 uM": 2.5}, {"smiles": "CCc1nnc(SCc2nc(-c3ccc(OC)cc3)oc2C)c2cc3occc3n12", "% Inhibition @ 10 uM": 0.616}, {"smiles": "Cc1nc2c3ccccc3nc(SCc3cccc(C(F)(F)F)c3)n2n1", "% Inhibition @ 10 uM": 0.0592}, {"smiles": "O=C1c2cccnc2C(=O)N1Cc1ccc(S(=O)(=O)NC2CCCc3ccccc32)cc1", "note": "(stereo not drawn)", "% Inhibition @ 10 uM": 6.91}, {"smiles": "COC(=O)c1sc(-c2ccccc2)cc1NC(=O)c1c(F)cccc1F", "% Inhibition @ 10 uM": -6.04}, {"smiles": "COc1nc(N(C)C)nc(N2C(=N)N(c3ccc(Cl)c(Cl)c3)C(=O)C2C)n1", "note": "(stereo not drawn)", "% Inhibition @ 10 uM": -1.32}, {"smiles": "COc1ccc2nc(NC(=O)c3ccccc3C(=O)O)sc2c1", "% Inhibition @ 10 uM": 1.59}, {"smiles": "COc1ccc(C2C=C(c3ccc(Cl)cc3)NC(=O)C2C#N)cc1", "note": "(stereo not drawn)", "% Inhibition @ 10 uM": -4.62}, {"smiles": "CC(C)OC(=O)c1sc2nc3c(cc2c1N)CN(C)CC3", "% Inhibition @ 10 uM": 7.05}, {"smiles": "CCOC(=O)c1ccc2c(c1)c(C)c(C)n2C", "% Inhibition @ 10 uM": -0.0309}, {"smiles": "CCN(CC)CCN(CC)CC1CCCCC1", "% Inhibition @ 10 uM": 1.26}, {"smiles": "CCOc1ccc(C2CC(c3ccc(Cl)cc3Cl)Nc3nc(N)nn32)cc1", "note": "(stereo not drawn)", "% Inhibition @ 10 uM": -2.92}, {"smiles": "N#Cc1c(O)nnc(-c2ccccc2)c1-c1ccccc1", "% Inhibition @ 10 uM": -0.413}, {"smiles": "CCn1nccc1C(=O)Nc1cc(F)ccc1C", "% Inhibition @ 10 uM": 1.61}, {"smiles": "Cc1ccc(S(=O)(=O)Nc2ccn(-c3ccccc3)n2)cc1", "% Inhibition @ 10 uM": -1.76}, {"smiles": "COc1ccc(-c2nc(CSCC(=O)NC3CCCc4ccccc43)c(C)o2)cc1", "note": "(stereo not drawn)", "% Inhibition @ 10 uM": -2.85}, {"smiles": "O=S(=O)(Nc1cccc(-c2cn3ccsc3n2)c1)c1ccc2ccccc2c1", "% Inhibition @ 10 uM": 3.05}, {"smiles": "CCOc1cc(C(=O)NCc2nc(-c3ccc(Cl)cc3)no2)cc(OCC)c1OCC", "% Inhibition @ 10 uM": -1.22}, {"smiles": "c1ccc(CCN2CCC(NC3CCCC3)CC2)cc1", "% Inhibition @ 10 uM": -0.0908}, {"smiles": "O=C(O)COc1ccc(/C=C2\\SC(=O)N(c3cccc(Cl)c3)C2=O)cc1", "% Inhibition @ 10 uM": 6.4}, {"smiles": "C=CCc1ccccc1OCC(O)CN1CCN(CCN2C(=O)c3cccc4cccc(c34)C2=O)CC1", "note": "(stereo not drawn)", "% Inhibition @ 10 uM": 3.06}]}]}
